This is an account of results in patent US20200330514A1 (TORQUE THERAPEUTICS, published 2020).

This assay addresses T1, human CD45 receptor on the surface of human T cells (human, UniProt P08575 26-1306).
T1 construct: whole, on cells; also called cellular CD45; leukocyte common antigen
T1 sequence (looked up): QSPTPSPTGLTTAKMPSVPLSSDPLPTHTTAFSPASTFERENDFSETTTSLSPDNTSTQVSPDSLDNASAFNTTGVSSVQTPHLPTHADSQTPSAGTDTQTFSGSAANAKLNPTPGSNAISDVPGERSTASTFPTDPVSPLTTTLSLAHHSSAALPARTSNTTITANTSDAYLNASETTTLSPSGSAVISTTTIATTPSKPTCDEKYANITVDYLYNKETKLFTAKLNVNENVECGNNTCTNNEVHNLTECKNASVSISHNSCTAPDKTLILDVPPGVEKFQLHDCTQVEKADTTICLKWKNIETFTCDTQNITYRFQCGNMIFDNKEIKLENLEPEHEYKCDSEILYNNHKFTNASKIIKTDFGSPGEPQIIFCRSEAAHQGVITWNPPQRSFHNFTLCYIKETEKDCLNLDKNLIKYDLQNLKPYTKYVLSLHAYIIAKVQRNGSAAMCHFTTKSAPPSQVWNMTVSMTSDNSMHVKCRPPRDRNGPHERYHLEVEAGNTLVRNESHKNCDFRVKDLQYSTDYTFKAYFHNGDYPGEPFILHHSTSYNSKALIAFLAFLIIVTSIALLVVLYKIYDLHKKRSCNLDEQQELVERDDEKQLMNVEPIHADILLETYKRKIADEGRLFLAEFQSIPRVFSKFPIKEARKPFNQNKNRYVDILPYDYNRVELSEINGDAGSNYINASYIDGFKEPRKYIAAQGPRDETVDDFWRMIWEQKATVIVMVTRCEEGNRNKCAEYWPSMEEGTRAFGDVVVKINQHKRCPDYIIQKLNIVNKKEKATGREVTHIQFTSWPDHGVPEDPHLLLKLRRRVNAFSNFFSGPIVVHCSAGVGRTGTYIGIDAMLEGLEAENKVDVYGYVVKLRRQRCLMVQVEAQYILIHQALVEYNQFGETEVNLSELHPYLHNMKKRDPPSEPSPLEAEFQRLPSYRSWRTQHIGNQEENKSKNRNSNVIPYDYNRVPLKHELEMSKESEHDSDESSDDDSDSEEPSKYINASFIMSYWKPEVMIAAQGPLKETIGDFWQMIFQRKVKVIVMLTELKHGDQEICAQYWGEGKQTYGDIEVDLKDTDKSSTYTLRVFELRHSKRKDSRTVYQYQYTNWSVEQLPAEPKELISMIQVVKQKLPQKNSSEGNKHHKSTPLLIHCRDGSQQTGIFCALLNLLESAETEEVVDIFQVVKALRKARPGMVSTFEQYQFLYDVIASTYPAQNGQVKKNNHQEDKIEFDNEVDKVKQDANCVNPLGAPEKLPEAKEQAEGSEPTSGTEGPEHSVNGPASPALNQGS
In words: flow cytometry of pulsed human CD8 T cells, anti-IL-15 and anti-human IgG staining. The protocol: A mock pulse control in which cells were incubated in a 1:1 mixture of PBS and HBSS was used as a negative control. Cells were then stained for IL-15 using a fluorescently-labeled anti-IL-15 antibody or for IgG domains (Fab or Fc fragments) using a fluorescently-labeled polyclonal antibody that recognizes human IgG light and heavy chains. These antibodies provided detection of both IL-15 or the associated Fab or Fc fragments on the T cell surface. The hBC8(23)-IL15/sushi Fab protein yielded substantially higher levels of IL-15 staining than the IL15/sushi-Fc2 Da or IL15-N72D/sushiL77I-Fc proteins indicating a greater abundance of IL-15 on the cell surface (FIG. 8A). […] The cells were propagated in culture and monitored for IL-15 surface levels for three days following the pulse incubation. IL-15 detection remained above background for hBC8(23)-IL15/sushi Fab, while both of the IL15/sushi-Fc variants were indistinguishable from background one day after the pulse incubation (FIG. 8B).
Measurement of IFM on cell surface. Cells were analyzed by immunofluorescent staining to detect cell surface IFMs following 0, 1, and 3 days in culture following pulse incubation and washes. […]

B1: hBC8(23)-IL15/sushi Fab (other)
heavy: EVQLVESGGGLVQPGGSLRLSCAASGFDFSRYWMSWVRQAPGKGLEWIGEINPTSSTINFADSVKGRFTISRDNAKNSLYLQMNSVRDEDTAVYYCARGNYYRYGDAMDYWGQGTLVTVSSASTKGPSVFPLAPSSKSTSGGTAALGCLVKDYFPEPVTVSWNSGALTSGVHTFPAVLQSSGLYSLSSVVTVPSSSLGTQTYICNVNHKPSNTKVDKKVEPKSC
light: EIVLTQSPATLSLSLGERATISCRASKSVSTSGYSYLHWYQQKPGQAPKLLIYLASNRATGVPARFSGSGPGTDFTLTISSLEPEDFATYYCQHSRELPFTFGQGTKLEIKRTVAAPSVFIFPPSDEQLKSGTASVVCLLNNFYPREAKVQWKVDNALQSGNSQESVTEQDSKDSTYSLSSTLTLSKADYEKHKVYACEVTHQGLSSPVTKSFNRGECGGGGSGGGGSGGGGS[about 120 residues cut from this listing]
chain: ITCPPPMSVEHADIWVKSYSLYSRERYICNSGFKRKAGTSSLTECVLNKATNVAHWTTPSLKCIR
notes: also called hBC8Fab-IL15/sushi
With B1, the binding result was “binds”.
